# Assay results as given in the supplement of paper PMC10037445.
# Whole data set: some 2,900 compounds, median “IRF Lucia reporter activity, fold change vs agonist alone” near 0.9, cut for the highest 2% near 2.8. This is one part of the list.
# How the values were obtained:
# [1] = system: RAW-Dual; experiment: IRF Lucia reporter activity, fold change vs agonist alone; higher = enhanced IRF activity; settings: cytotoxicity flag (confluency mask): not cytotoxic, agonist: MPLA (TLR4) […]
# In short: (§1)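 RAW-Dual macrophages were seeded in DMEM at 50,000 cells/well in 384-well plates, given 50 nL of library stock by pin tool, and given a PRR agonist 1 h later. Plates were held at 37 °C, 5% CO2 for 20 hours, after which supernatant was read for IRF by QuantiLuc luminescence and for NF-κB by QuantiBlue absorbance at 620 nm. Reporter activity is expressed as fold change over wells that received agonist alone. A well was called cytotoxic when IncuCyte confluency fell below 70% of agonist controls in both mask sets.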
# [2] = system: RAW-Dual; experiment: IRF Lucia reporter activity, fold change vs agonist alone; cytotoxicity flag (confluency mask): not cytotoxic; higher = enhanced IRF activity
# In short: as §1
# [3] = library stock concentration (final ~1000-fold dilution): 10 mM
# [4] = agonist: 3'3'-cGAMP (STING) 10 ug/mL
# [5] = library stock concentration (final ~1000-fold dilution): 2 mM
structure (smiles),measurement,setting,value
CS(=O)(=O)CCNCc1ccc(-c2ccc3ncnc(Nc4ccc(OCc5cccc(F)c5)c(Cl)c4)c3c2)o1,IRF Lucia reporter activity,[1]; [3],1.6
CS(=O)(=O)CCNCc1ccc(-c2ccc3ncnc(Nc4ccc(OCc5cccc(F)c5)c(Cl)c4)c3c2)o1 (library stock concentration (final ~1000-fold dilution): 10 mM),IRF Lucia reporter activity,[2]; [4],0.277
same,IRF Lucia reporter activity,[2]; agonist: LPS (TLR4) 0.1 ug/mL,1.43
Cl.O=C1NCC2(CCN(CCc3ccccc3)CC2)O1 (library stock concentration (final ~1000-fold dilution): 10 mM),IRF Lucia reporter activity,[2]; [4],0.933
same,IRF Lucia reporter activity,[2]; agonist: LPS (TLR4) 0.1 ug/mL,0.706
Cl.O=C1NCC2(CCN(CCc3ccccc3)CC2)O1,IRF Lucia reporter activity,[1]; [3],0.939
CC(C)(C)C(=O)OCOP(=O)(COCCn1cnc2c(N)ncnc21)OCOC(=O)C(C)(C)C (library stock concentration (final ~1000-fold dilution): 10 mM),IRF Lucia reporter activity,[2]; [4],2.04
same,IRF Lucia reporter activity,[2]; agonist: LPS (TLR4) 0.1 ug/mL,2.36
CC(C)(C)C(=O)OCOP(=O)(COCCn1cnc2c(N)ncnc21)OCOC(=O)C(C)(C)C,IRF Lucia reporter activity,[1]; [3],2.95
COc1cc(-c2cc(-c3ccc(Cl)cc3)nc(=O)[nH]2)ccc1O (library stock concentration (final ~1000-fold dilution): 10 mM),IRF Lucia reporter activity,[2]; [4],0.736
same,IRF Lucia reporter activity,[2]; agonist: LPS (TLR4) 0.1 ug/mL,0.926
COc1ccc2[nH]c(S(=O)Cc3ncc(C)c(OC)c3C)nc2c1 (centres undefined),IRF Lucia reporter activity,[1]; [3],0.986
COc1ccc2[nH]c(S(=O)Cc3ncc(C)c(OC)c3C)nc2c1 (centres undefined) (library stock concentration (final ~1000-fold dilution): 10 mM),IRF Lucia reporter activity,[2]; [4],0.987
same,IRF Lucia reporter activity,[2]; agonist: LPS (TLR4) 0.1 ug/mL,0.982
O=c1ccc2ccc(O)c(O)c2o1 (library stock concentration (final ~1000-fold dilution): 10 mM),IRF Lucia reporter activity,[2]; [4],0.815
same,IRF Lucia reporter activity,[2]; agonist: LPS (TLR4) 0.1 ug/mL,1.02
O=c1ccc2ccc(O)c(O)c2o1,IRF Lucia reporter activity,[1]; [3],0.915
Nc1nc(N)c2nc(-c3cccc(O)c3)cnc2n1,IRF Lucia reporter activity,[1]; [5],1.12
Nc1nc(N)c2nc(-c3cccc(O)c3)cnc2n1 (library stock concentration (final ~1000-fold dilution): 2 mM),IRF Lucia reporter activity,[2]; [4],0.408
same,IRF Lucia reporter activity,[2]; agonist: LPS (TLR4) 0.1 ug/mL,1.18
COc1ccccc1N1CCN(CC(O)COc2cccc3ccccc23)CC1 (centres undefined) (library stock concentration (final ~1000-fold dilution): 10 mM),IRF Lucia reporter activity,[2]; [4],0.943
same,IRF Lucia reporter activity,[2]; agonist: LPS (TLR4) 0.1 ug/mL,0.994
COc1ccccc1N1CCN(CC(O)COc2cccc3ccccc23)CC1 (centres undefined),IRF Lucia reporter activity,[1]; [3],1.09
Cc1ncc(Cl)cc1NCc1ccc(C(=O)NC(CC2CCCC2)C(=O)NC2CC2)s1 (centres undefined),IRF Lucia reporter activity,[1]; [3],1.15
Cc1ncc(Cl)cc1NCc1ccc(C(=O)NC(CC2CCCC2)C(=O)NC2CC2)s1 (centres undefined) (library stock concentration (final ~1000-fold dilution): 10 mM),IRF Lucia reporter activity,[2]; [4],1.07
same,IRF Lucia reporter activity,[2]; agonist: LPS (TLR4) 0.1 ug/mL,1.17
O=c1cc(N2CCOCC2)oc2c1ccc1ccccc12 (library stock concentration (final ~1000-fold dilution): 2 mM),IRF Lucia reporter activity,[2]; [4],0.778
same,IRF Lucia reporter activity,[2]; agonist: LPS (TLR4) 0.1 ug/mL,1.01
O=c1cc(N2CCOCC2)oc2c1ccc1ccccc12,IRF Lucia reporter activity,[1]; [5],1.15
CC#CC(=O)N1CCC(n2c(=O)n(-c3ccc(Oc4ccccc4)cc3)c3c(N)ncnc32)C1.Cl (centres undefined) (library stock concentration (final ~1000-fold dilution): 10 mM),IRF Lucia reporter activity,[2]; [4],0.0947
same,IRF Lucia reporter activity,[2]; agonist: LPS (TLR4) 0.1 ug/mL,0.802
CN1CCN(c2ccc(-c3ccncc3-c3cc(F)c(O)c(F)c3)cc2)CC1 (library stock concentration (final ~1000-fold dilution): 10 mM),IRF Lucia reporter activity,[2]; [4],0.631
same,IRF Lucia reporter activity,[2]; agonist: LPS (TLR4) 0.1 ug/mL,1
Cc1cc(Nc2ccc(NC(=O)c3ccc(Nc4ccnc5ccccc45)cc3)cc2)nc(N)n1,IRF Lucia reporter activity,[1]; [3],3.15
Cc1cc(Nc2ccc(NC(=O)c3ccc(Nc4ccnc5ccccc45)cc3)cc2)nc(N)n1 (library stock concentration (final ~1000-fold dilution): 10 mM),IRF Lucia reporter activity,[2]; [4],1.65
same,IRF Lucia reporter activity,[2]; agonist: LPS (TLR4) 0.1 ug/mL,2.84
CCC1C(COc2nccc3cc(C(N)=O)c(OC)cc23)NC(=O)C1F (centres undefined) (library stock concentration (final ~1000-fold dilution): .1 mM),IRF Lucia reporter activity,[2]; [4],0.825
same,IRF Lucia reporter activity,[2]; agonist: LPS (TLR4) 0.1 ug/mL,1.06
CCOc1nc2cccc(C(=O)OCc3oc(=O)oc3C)c2n1Cc1ccc(-c2ccccc2-c2nc(=O)o[nH]2)cc1,IRF Lucia reporter activity,[1]; [3],1.16
CCOc1nc2cccc(C(=O)OCc3oc(=O)oc3C)c2n1Cc1ccc(-c2ccccc2-c2nc(=O)o[nH]2)cc1 (library stock concentration (final ~1000-fold dilution): 10 mM),IRF Lucia reporter activity,[2]; [4],1.04
same,IRF Lucia reporter activity,[2]; agonist: LPS (TLR4) 0.1 ug/mL,1.16
CCOc1cc(N)c([N+](=O)[O-])cc1C(=O)NC1CCN(CC2CC=CCC2)CC1.O=C(O)C(O)C(O)C(=O)O (centres undefined),IRF Lucia reporter activity,[1]; [3],1.24
CCOc1cc(N)c([N+](=O)[O-])cc1C(=O)NC1CCN(CC2CC=CCC2)CC1.O=C(O)C(O)C(O)C(=O)O (centres undefined) (library stock concentration (final ~1000-fold dilution): 10 mM),IRF Lucia reporter activity,[2]; [4],0.711
same,IRF Lucia reporter activity,[2]; agonist: LPS (TLR4) 0.1 ug/mL,1.27
